# In all, about 360,000 compounds went through this assay and about 16,000 (4.4%) were called active. The inconclusive results got no clear call from the source; some entries with a clear call stand among them for comparison. The call rests on the fitted dose curve; in most records, active means well fitted inhibition curve with a large enough effect; inconclusive means small, poorly fitted or top-dose-only effect; inactive means no such curve, though single readings can be large or run the other way. Potencies beside an inconclusive call are fits to weak or partial responses and may not hold up.
# Biological target: Bromodomain adjacent to zinc finger domain protein 2B (Homo sapiens) (UniProt Q9UIF8)
# Assay: qHTS Assay for Inhibitors of BAZ2B; further: nearly all actives have a fitted effect of over 60% in size
# Settings: AlphaScreen BAZ2B-H3K14Ac peptide displacement; series mostly up to 114 µM
# Summary of the method: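 Protein-peptide AlphaScreen: BAZ2B 50 nM, b-H3K14Ac 50 nM, 1x PBS pH 7.4 + 0.01% Tween-20. Preincubation 30 min RT; cpd 30 min RT (top 110 uM); beads 20 min RT, light-protected.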
# Potency means the concentration at half of the fitted maximal effect; tags describe the fitted curve by direction and shape.
# UniProt Q9UIF8, sequence (Q9UIF8 whole entry, looked up, the tested form may be a part): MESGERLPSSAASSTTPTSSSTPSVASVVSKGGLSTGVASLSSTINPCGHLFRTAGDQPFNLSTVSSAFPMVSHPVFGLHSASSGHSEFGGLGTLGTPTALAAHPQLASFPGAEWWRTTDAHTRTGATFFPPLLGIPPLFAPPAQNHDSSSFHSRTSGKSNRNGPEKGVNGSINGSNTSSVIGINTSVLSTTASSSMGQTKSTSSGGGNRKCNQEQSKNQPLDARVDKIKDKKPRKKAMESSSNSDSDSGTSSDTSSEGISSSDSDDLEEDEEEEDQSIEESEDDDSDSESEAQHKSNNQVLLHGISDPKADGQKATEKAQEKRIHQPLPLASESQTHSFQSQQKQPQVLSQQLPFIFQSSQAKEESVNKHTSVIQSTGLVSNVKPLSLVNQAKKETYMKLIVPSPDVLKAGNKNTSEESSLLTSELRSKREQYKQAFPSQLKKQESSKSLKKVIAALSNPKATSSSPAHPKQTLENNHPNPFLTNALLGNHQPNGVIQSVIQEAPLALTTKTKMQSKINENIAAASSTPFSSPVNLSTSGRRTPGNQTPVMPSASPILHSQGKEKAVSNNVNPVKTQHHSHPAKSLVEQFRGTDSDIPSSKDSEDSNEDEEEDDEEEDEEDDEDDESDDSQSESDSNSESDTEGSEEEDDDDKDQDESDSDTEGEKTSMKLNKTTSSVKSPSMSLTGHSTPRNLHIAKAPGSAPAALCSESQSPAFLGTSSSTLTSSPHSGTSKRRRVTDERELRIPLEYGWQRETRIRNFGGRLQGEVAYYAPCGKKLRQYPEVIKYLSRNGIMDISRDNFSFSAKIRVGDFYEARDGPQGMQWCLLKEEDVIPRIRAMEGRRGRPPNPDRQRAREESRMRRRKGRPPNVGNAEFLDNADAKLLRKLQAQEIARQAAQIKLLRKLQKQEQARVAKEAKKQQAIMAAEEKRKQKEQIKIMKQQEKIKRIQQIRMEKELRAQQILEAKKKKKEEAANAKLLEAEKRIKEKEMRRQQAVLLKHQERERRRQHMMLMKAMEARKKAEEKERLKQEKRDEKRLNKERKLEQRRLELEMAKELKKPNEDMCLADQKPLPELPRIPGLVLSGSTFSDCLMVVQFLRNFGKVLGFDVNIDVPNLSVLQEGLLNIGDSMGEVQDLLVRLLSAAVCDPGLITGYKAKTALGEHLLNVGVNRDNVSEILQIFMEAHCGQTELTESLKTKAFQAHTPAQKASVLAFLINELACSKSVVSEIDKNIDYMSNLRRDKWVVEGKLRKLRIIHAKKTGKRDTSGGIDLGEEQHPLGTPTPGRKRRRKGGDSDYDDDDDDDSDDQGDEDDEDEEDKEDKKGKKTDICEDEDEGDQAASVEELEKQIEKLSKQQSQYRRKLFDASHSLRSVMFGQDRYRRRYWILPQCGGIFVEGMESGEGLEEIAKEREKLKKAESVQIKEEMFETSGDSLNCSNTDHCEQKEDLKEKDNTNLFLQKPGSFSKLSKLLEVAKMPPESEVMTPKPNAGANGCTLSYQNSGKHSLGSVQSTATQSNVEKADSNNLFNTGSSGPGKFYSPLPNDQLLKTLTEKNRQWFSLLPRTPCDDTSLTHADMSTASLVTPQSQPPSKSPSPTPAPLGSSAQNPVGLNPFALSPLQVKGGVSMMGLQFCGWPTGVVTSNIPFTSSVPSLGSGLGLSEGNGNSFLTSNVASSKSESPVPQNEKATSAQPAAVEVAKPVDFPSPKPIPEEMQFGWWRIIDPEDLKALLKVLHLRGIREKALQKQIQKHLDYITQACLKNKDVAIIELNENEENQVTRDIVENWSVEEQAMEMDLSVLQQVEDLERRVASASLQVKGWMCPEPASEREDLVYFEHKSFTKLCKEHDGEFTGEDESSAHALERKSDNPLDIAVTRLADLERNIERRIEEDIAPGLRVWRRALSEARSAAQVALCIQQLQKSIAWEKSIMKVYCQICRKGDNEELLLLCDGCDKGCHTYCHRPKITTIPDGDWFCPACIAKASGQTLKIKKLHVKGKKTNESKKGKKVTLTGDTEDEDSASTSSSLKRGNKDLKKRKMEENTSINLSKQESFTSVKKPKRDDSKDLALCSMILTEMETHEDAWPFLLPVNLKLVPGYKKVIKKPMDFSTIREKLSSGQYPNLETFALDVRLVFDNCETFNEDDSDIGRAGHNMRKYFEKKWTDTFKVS
row,SMILES,Potency
1,CC(C)n1cnc2cc(NCc3ccccc3O)ccc21,"inconclusive: 89.1 µM [inhibitor, single point]"
2,COc1ccc(N2CCN(C(=O)c3cccc(N4C(=O)C5CC=CC(C)C5C4=O)c3)CC2)cc1 (configuration not stated),"inconclusive: 56.2 µM [inhibitor, partial curve]"
3,Cc1nn2c(c1-c1ccccc1)N=C(c1ccco1)CC2c1ccccc1 (configuration not stated),"inconclusive: 35.5 µM [inhibitor, partial curve]"
4,COc1ccc(NCC(O)COc2ccc(C(C)(C)C)cc2)cc1 (configuration not stated),"inconclusive: 22.4 µM [inhibitor, full curve]"
5,COc1ccc(/C=N/NC(=O)c2cc(-c3cccn3C)n[nH]2)cc1OC,active: 50.1 µM
6,Cc1cccc(C)c1NC(=O)CN1C(=O)C(C)Oc2ccccc21 (configuration not stated),"inconclusive: 89.1 µM [inhibitor, single point]"
7,Cc1ccccc1C(=O)N1CCC(C(=O)Nc2ccc3c(c2)OCCO3)CC1,"inconclusive: 11.2 µM [inhibitor, full curve, poor fit]"
8,Oc1cccc2cc3cccc(O)c3c(O)c12,active: 39.8 µM
9,C=CCc1ccccc1OCCCCN1CCCC1,active: 50.1 µM
10,COc1ccc(NC(=S)NCc2ccc3c(c2)cc(C)n3C)cc1,active: 44.7 µM
11,C=CCc1ccc(OCCCCNC(C)CC)c(OC)c1 (configuration not stated),inactive
12,Cc1cccc(C(=O)N=c2c(C#N)cc3c(=O)n4cccc(C)c4nc3n2Cc2ccco2)c1,inactive
13,COc1ccc(-c2nn(-c3ccccc3)cc2CN(C)CCn2ccnc2C)c(F)c1,"inconclusive: 70.8 µM [inhibitor, partial curve]"
14,COc1ccccc1N1CCN(C(=O)c2sc3ncnc(N4CCN(c5ccccn5)CC4)c3c2C)CC1,"inconclusive: 56.2 µM [inhibitor, partial curve]"
15,CN(C)c1ccc(/C=C/c2ccc3ccccc3[n+]2C)cc1,active: 44.7 µM
16,COCCn1c(SCC(=O)Nc2ncc(C)s2)nc2sc3c(c2c1=O)CCC3,"inconclusive: 50.1 µM [inhibitor, partial curve]"
17,CCOC(=O)C1=C(C)N=C2SC(C(=O)OC)=CC(=O)N2C1c1cccc(OC)c1 (configuration not stated),"inconclusive: 79.4 µM [inhibitor, single point]"
18,O=C(CSc1ncnc2sc3c(c12)CCC3)N1CCOCC1,"inconclusive: 56.2 µM [inhibitor, partial curve]"
19,CCOc1ccc(Nc2ccc(N3C(=O)CCC3=O)cc2[N+](=O)[O-])cc1,"inconclusive: 56.2 µM [inhibitor, single point]"
20,O=[N+]([O-])c1cc(S(=O)(=O)Nc2cccc(C(F)(F)F)c2)ccc1-n1nnc2ccccc21,"inconclusive: 50.1 µM [inhibitor, partial curve]"
21,Cc1cccc(CSc2ncc(CO)n2Cc2ccc(F)cc2)c1,"inconclusive: 39.8 µM [inhibitor, partial curve]"
22,O=C(c1ccco1)n1nc(-c2ccccc2)nc1NCc1ccco1,inactive
23,COc1ccc(C(CC(=O)Nc2cc(OC)cc(OC)c2)n2cccc2)cc1 (configuration not stated),"inconclusive: 44.7 µM [inhibitor, partial curve]"
24,COc1ccc2[nH]c(C)c(CCNc3ccc(C(F)(F)F)cc3[N+](=O)[O-])c2c1,active: 28.2 µM

row,SMILES,Potency
1,Cc1ccc(C(=O)C2=C(O)C(=O)N(c3ncccn3)C2c2cccc(Cl)c2)o1 (configuration not stated),"inconclusive: 89.1 µM [inhibitor, single point]"
2,N#Cc1ccc(C(=O)Nc2ccc(N3CCN(C(=O)c4ccco4)CC3)cc2)c(F)c1,"inconclusive: 89.1 µM [inhibitor, single point]"
3,CC(=O)N1CCN(S(=O)(=O)c2ccc(C)cc2)C1c1ccc(N(C)C)cc1 (configuration not stated),inactive
4,Cc1nc(C)c(-c2csc(Nc3ccc(F)cc3)n2)s1,"inconclusive: 50.1 µM [inhibitor, partial curve]"
5,S=c1[nH]nc(-c2c[nH]c3ccccc23)o1,inactive
6,CCCCNC(=O)N(C)c1nc2ccccc2s1,inactive
7,COc1ccc2c(CCNC(N)=S)c[nH]c2c1,active: 89.1 µM
8,COc1ccc(N2CCN(C(=O)CN(c3cccc(OC)c3)S(=O)(=O)c3ccccc3)CC2)cc1,"inconclusive: 25.1 µM [inhibitor, full curve]"
9,O=C(c1ccccc1F)N1CCN(Cc2ccc3c(c2)OCO3)CC1,active: 44.7 µM
10,NC(=O)C[C@@H]1NC(=O)CNC(=O)c2cc([N+](=O)[O-])cc(I)c2NCCC(C(N)=O)NC1=O (some centres not stated),"inconclusive: 89.1 µM [inhibitor, single point]"
11,COc1ccc(C2=NS(=O)(=O)N(C)C(C(=O)Nc3cc(C)ccc3O)=C2)cc1OC,"inconclusive: 70.8 µM [inhibitor, single point]"
12,CC1(C)NC(=O)N(CCCCOc2ccc(Br)cc2Cl)C1=O,"inconclusive: 3.98 µM [inhibitor, single point]"
13,COc1ccc(OC)c(C(=O)CSc2nnc(Cc3cccs3)n2CCc2ccccc2)c1,"inconclusive: 100 µM [inhibitor, partial curve]"
14,CCCN1C(=O)/C(=N\OCC(=O)NCC(F)(F)F)c2ccccc21,inactive
15,Cc1ccc(Cl)c2c1N[C@@H](c1ccc(C(=O)O)cc1)[C@H]1CC=C[C@@H]21,"inconclusive: 35.5 µM [inhibitor, partial curve]"
16,CCOc1ccc(OCC)c(NC(=O)CN2CCN(c3cccc(C)c3)C(C)C2)c1 (configuration not stated),active: 50.1 µM
17,COc1ccc(/C=N/NC(=S)SC)cc1OC,"inconclusive: 8.91 µM [inhibitor, full curve]"
18,CCOC(=O)c1ccc2c(c1)n(CCCS(=O)(=O)[O-])c(/C=C/c1ccc(Cl)cc1)[n+]2CC,inactive
19,C=CCNCCCCOc1ccc(Br)cc1C,active: 79.4 µM
20,CC1CCCC(NC(=O)CSc2nnc(N)s2)C1C (configuration not stated),inactive
21,O=C(NC(=S)NC1CC1)c1cccnc1,"inconclusive: 100 µM [inhibitor, single point]"
22,N/C(COc1ccc(C(=O)O)cc1)=N\O,"inconclusive: 89.1 µM [inhibitor, single point]"
23,COc1ccc2c(c1)Cc1sc(NC(=O)c3ccccc3Br)nc1-2,inactive
24,Cc1ccc(NC(=O)c2ccccc2NC(=O)c2cccnc2)cc1,"inconclusive: 89.1 µM [inhibitor, single point]"

row,SMILES,Potency
1,CCn1c(SCC(=O)Nc2ccc(C)cc2Br)nnc1-c1nonc1NC(C)=O,"inconclusive: 79.4 µM [inhibitor, single point]"
2,CCN1CCc2c(sc(NC(=O)c3ccc(C(=O)c4ccccc4)cc3)c2C(N)=O)C1,active: 39.8 µM
3,Cc1ccc(C)n1-c1nnc(N2CCC(C(=O)Nc3ccccc3Br)CC2)s1,inactive
4,CC(=O)Oc1ccc(/C=C2/C(=O)N(c3ccccc3)N=C2C)cc1,"inconclusive: 70.8 µM [inhibitor, single point]"
5,O=C(CN1CCN(Cc2ccccc2)CC1)c1ccc(Br)cc1,"inconclusive: 79.4 µM [inhibitor, single point]"
6,COc1ccc(CCNC(=O)Cn2cc(S(=O)(=O)Cc3ccccc3F)c3ccccc32)cc1OC,inactive
7,CC(NC(=O)COC(=O)c1cc([N+](=O)[O-])ccc1N1CCOCC1)c1ccc(F)cc1 (configuration not stated),active: 50.1 µM
8,CCc1ccc(C(C(=O)NC2CCCCC2)N(C(=O)c2csnn2)C2CC2)cc1 (configuration not stated),inactive
9,Cc1ccnc(NS(=O)(=O)c2ccc(NC(=O)c3ccc(N4C(=O)CCC4=O)cc3)cc2)n1,"inconclusive: 100 µM [inhibitor, single point]"
10,Fc1ccc(NC(=S)N/N=C/c2ccc(F)c(F)c2)c(F)c1,inactive
11,CC(Oc1ccc(Cl)cc1)C(=O)N(C)CC(=O)Nc1ccc(N2CCOCC2)cc1 (configuration not stated),"inconclusive: 89.1 µM [inhibitor, single point]"
12,Cc1cccc(/C=N\NC(=O)c2ccccc2-n2cccc2)c1,"inconclusive: 79.4 µM [inhibitor, partial curve]"
13,COc1ccc(NC(=O)C2CCCN(c3nn4c(=O)cc(C)nc4s3)C2)c(OC)c1 (configuration not stated),"inconclusive: 89.1 µM [inhibitor, single point]"
14,COc1ccc(/C=C/C(=O)OCC(=O)NCc2ccco2)cc1OC,"inconclusive: 89.1 µM [inhibitor, single point]"
15,Cc1ccc2c(=O)cc(C(=O)Nc3nnc(CC(C)C)s3)oc2c1C,inactive
16,COc1ccc(C(=O)N[C@H](C(=O)Nc2nc3c(s2)CCCC3)C(C)C)cc1,"inconclusive: 79.4 µM [inhibitor, single point]"
17,C[C@@H]1NC(=O)[C@H](CCCN=C(N)N)NC(=O)c2cc([N+](=O)[O-])cc(I)c2OCC[C@@H](C(N)=O)NC1=O,"inconclusive: 79.4 µM [inhibitor, single point]"
18,NC(=O)c1ccsc1NC(=O)c1ccc(N2CCCC2=O)cc1,inactive
19,Cn1cccc1CC(=O)NNC(=O)Nc1ccc(Cl)cc1,"inconclusive: 70.8 µM [inhibitor, single point]"
20,Oc1c(C(c2ccc(Cl)cc2Cl)N2CCOCC2)sc2nc(-c3ccco3)nn12 (configuration not stated),"inconclusive: 89.1 µM [inhibitor, single point]"
21,CC(C)(CC(=O)O)CC(=O)Nc1ccccc1Oc1ccccc1,inactive
22,O=[N+]([O-])c1cccc(S(=O)(=O)Nc2cccc(-c3ccc(N4CCOCC4)nn3)c2)c1,inactive
23,CCOC(=O)c1ccc(N2Cc3ccccc3C2)cc1O,inactive
24,C=Cn1c(C(=O)O)cc(CC)c1-c1ccccc1,"inconclusive: 79.4 µM [inhibitor, single point]"
